From PubChem BioAssay AID540317 (National Center for Advancing Translational Sciences (NCATS), 2011)
Hit rate of the full screen: of about 390,000 compounds, about 2,200 (0.56%) were called active. The inconclusive results got no clear call from the source; some entries with a clear call stand among them for comparison. The call rests on the fitted dose curve; in most records, active means well fitted inhibition curve with a large enough effect; inconclusive means small, poorly fitted or top-dose-only effect; inactive means no such curve, though single readings can be large or run the other way. Where the call is inconclusive, the potency comes from a doubtful curve fit.

What follows are compounds tested against Chromobox protein homolog 1 (Homo sapiens) (UniProt P83916) (assay: HTS for Inhibitors of HP1-beta Chromodomain Interactions with Methylated Histone Tails). Conditions: AlphaScreen HP1-beta / biotin-H3K9me3 peptide binding; series mostly up to 114 µM.
Procedure, shortened: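 AlphaScreen: HP1-beta (50 nM) preformed 30 min with biotin-H3(1-18)K9me3 peptide (50 nM) in PBS pH 7.4, 0.01% Tween-20. Compound added for 30 min at RT, then streptavidin donor/nickel chelate acceptor beads (10 ug/mL) for 30 min.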
Further: nearly all actives have a fitted effect of over 70% in size.
Potency means the concentration at half of the fitted maximal effect; tags describe the fitted curve by direction and shape.

Sequence of UniProt P83916 (P83916 whole entry, looked up): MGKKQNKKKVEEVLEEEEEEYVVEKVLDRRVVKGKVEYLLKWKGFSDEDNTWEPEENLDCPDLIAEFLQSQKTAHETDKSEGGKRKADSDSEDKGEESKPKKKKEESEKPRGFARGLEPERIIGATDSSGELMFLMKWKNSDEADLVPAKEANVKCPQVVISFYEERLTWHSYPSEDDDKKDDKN

| SMILES | Potency |
| --- | --- |
| CCN1C(=O)[C@H]2[C@H]3CN=C(SCC4CC4)N3[C@@](Cc3ccccc3)(C(=O)OC)[C@H]2C1=O | inactive |
| COc1cc(CNCc2ccccc2C(F)(F)F)cc(OC)c1 | inconclusive: 14.1 µM [inhibitor, partial curve, poor fit] |
| COc1ccc(/C=N/NC(=O)CN2CCSCC2)cc1C | inconclusive: 50.1 µM [inhibitor, partial curve, poor fit] |
| COc1ccccc1N1CCN(C2CCN(S(=O)(=O)c3ccc4ccccc4c3)CC2)CC1 | inconclusive: 35.5 µM [inhibitor, partial curve] |
| COCc1ccc(CN2CCCC(CO)(Cc3ccccc3)C2)o1 (centres undefined) | inactive |
| CCN(CC)c1ccc(NC(=O)C2CC3CCC2C3)cc1 (centres undefined) | inconclusive: 70.8 µM [inhibitor, partial curve, poor fit] |
| COc1cccc(/C=N/n2c(-c3cc(C)[nH]n3)n[nH]c2=S)c1 | inconclusive: 79.4 µM [inhibitor, single point] |
| CCOC(=O)c1sc2ncnc(N3CCN(c4ccc(OC)cc4)CC3)c2c1C | inconclusive: 39.8 µM [inhibitor, single point] |
| CCC(Oc1ccc2c(c1)C(=O)CC(C)(C)O2)C(=O)NCCN1CCCCCC1 (centres undefined) | inconclusive: 50.1 µM [inhibitor, partial curve, poor fit] |
| CCn1c(=N)c(C(=O)NCC2CCCO2)cc2c(=O)n3cc(C)ccc3nc21 (centres undefined) | inactive |
| O=C(NCc1cccs1)C1CCN(c2ccc(S(=O)(=O)N3CCOCC3)cc2Cl)CC1 | inactive |
| Cc1ccc(S(=O)(=O)N2CCN(Cc3ccc4c(c3)OCO4)CC2)cc1 | inactive |
| O=C(NCc1ccco1)c1nn2c(C(F)(F)F)cc(-c3cccs3)nc2c1Br | inactive |
| CCCCOc1ccc(CNC(=O)C2CCCN(c3nnc(-n4c(C)ccc4C)s3)C2)cc1 (centres undefined) | inactive |
| COc1ccc(OC)c([N+](=O)[O-])c1C(N)=O | inconclusive: 56.2 µM [inhibitor, partial curve, poor fit] |
| CCOc1ccccc1NS(=O)(=O)c1cc2c3c(c1)CC(=O)N3CCC2 | inactive |
| FC(F)(F)c1nc2ccccc2nc1N/N=C\c1ccccc1 | inconclusive: 28.2 µM [inhibitor, single point] |
| O=C(O)c1ccc(-c2ccc(/C=C3\NC(=O)N(Cc4ccc(Cl)cc4)C3=O)o2)cc1 | inactive |
| C/C=C/c1ccc(OCCCCN2CCC(C)CC2)c(OC)c1 | inconclusive: 50.1 µM [inhibitor, partial curve, poor fit] |
| CCOC(=O)c1c(C)n(C)c2cc(Br)c(O)c(O)c12 | inconclusive: 28.2 µM [inhibitor, partial curve] |
| CC(C)CNS(=O)(=O)c1ccc(Br)cc1N1CCC[C@@H]1CO | inconclusive: 39.8 µM [inhibitor, single point] |
| COC(=O)CNC(=O)C1CCCN1C(=O)OC(C)(C)C (centres undefined) | inactive |
| CCOCCCn1c(-c2ccc(Cl)cc2)n[nH]c1=S | inactive |

| SMILES | Potency |
| --- | --- |
| Cc1cc(C(c2cc(C)c(N)c(C)c2)c2ccco2)cc(C)c1N | active: 79.4 µM |
| CN1CCN(c2ccc(S(=O)(=O)N3CCCCC3)cc2NC(=O)/C=C/c2ccc(Cl)c([N+](=O)[O-])c2)CC1 | inconclusive: 35.5 µM [inhibitor, partial curve] |
| COc1ccc(N2CCN(c3nc4cc(C)ccc4cc3C=O)CC2)cc1 | inconclusive: 15.8 µM [inhibitor, full curve] |
| COc1ccc(NC(=O)C2=Cc3ccccc3OC2)cc1 | inconclusive: 79.4 µM [inhibitor, single point] |
| Cc1cc(C)nc(N2CCCC(C(=O)Nc3ccc(F)cc3)C2)n1 (centres undefined) | inactive |
| Cc1ccc(-c2nnc3ccc(SC(C)C(=O)O)nn23)cc1 (centres undefined) | inconclusive: 89.1 µM [inhibitor, single point] |
| COc1ccc(CCNC(=S)Nc2ccc(S(=O)(=O)Nc3ncccn3)cc2)cc1OC | inactive |
| Cc1cc(Nc2cccc(Cl)c2)nc2ccc(NC(=O)c3cccc(N(C)C)c3)cc12 | inconclusive: 39.8 µM [inhibitor, partial curve] |
| Cc1ccccc1/C=N/N1CCN(c2ccccc2)CC1 | inconclusive: 17.8 µM [inhibitor, partial curve, poor fit] |
| COc1cc(C2C(C#N)=C(N)Oc3cc(C)oc(=O)c32)cc2c1OCO2 (centres undefined) | inactive |
| Cc1nc(SCc2ccc(O)c([N+](=O)[O-])c2)c([N+](=O)[O-])[nH]1 | inconclusive: 56.2 µM [inhibitor, partial curve, poor fit] |
| O=C(CSc1ncccn1)N1CCCCCC1 | inactive |
| O=C1CC(c2ccc(O)cc2)Oc2cc(O)cc(O)c21 (centres undefined) | inactive |
| FC(F)(F)c1ccc2c(c1)N1CCCC1CN2 (centres undefined) | inconclusive: 31.6 µM [inhibitor, full curve] |
| Cc1ccc(S(=O)(=O)N2CCC(N3CCCCCC3)CC2)cc1 | inconclusive: 44.7 µM [inhibitor, partial curve] |
| Cc1cccc(NC(=O)CSCC(=O)N(C)Cc2ccc(Cl)c(Cl)c2)c1 | inactive |
| CC(=O)N(C)c1ccc(N=Nc2c(C)[nH]n(-c3ccccc3)c2=O)cc1 | inconclusive: 31.6 µM [inhibitor, partial curve] |
| Cc1ccccc1CSCC(=O)NC(=O)NCc1ccco1 | inconclusive: 35.5 µM [inhibitor, full curve] |
| Cc1ccc(S(=O)(=O)NCC(c2ccc(N(C)C)cc2)N2CCc3ccccc32)cc1 (centres undefined) | inconclusive: 12.6 µM [inhibitor, full curve, poor fit] |
| O=C(c1cc2sccc2n1Cc1ccccc1)N1CCc2ccccc21 | inactive |
| O=C(Cc1ccccc1)Nc1nnc2n1CCS2 | inactive |
| COc1cccc(C2c3cc4c(cc3OC(N3CCOCC3)C2C)OCO4)c1O (centres undefined) | inconclusive: 15.8 µM [inhibitor, full curve, poor fit] |
| Cc1ccccc1OCCSc1nnc(-c2ccc([N+](=O)[O-])cc2)o1 | inconclusive: 35.5 µM [inhibitor, single point] |

| SMILES | Potency |
| --- | --- |
| COC(=O)c1c(NC(=O)CN2CCN(C(=O)c3ccco3)CC2)c2cc(C)ccc2n1C | inactive |
| Clc1cc(Br)ccc1OCCCNCc1ccccc1 | inconclusive: 25.1 µM [inhibitor, partial curve, poor fit] |
| Cn1cccc1/C=N/N1CCN(Cc2ccccc2)CC1 | inconclusive: 25.1 µM [inhibitor, partial curve, poor fit] |
| CC(=O)C1=C(C)N=c2s/c(=C/c3ccc4c(c3)OCO4)c(=O)n2C1c1ccc(N(C)C)cc1 (centres undefined) | inconclusive: 11.2 µM [inhibitor, full curve] |
| Cc1ccc(NS(=O)(=O)c2ccc(-c3cc(C)no3)cc2)c(C)c1 | inactive |
| Nc1ccc2c(c1)C(=O)c1ccc(Br)cc1-2 | inconclusive: 17.8 µM [inhibitor, partial curve] |
| COc1ccc(-c2cc(C(=O)Nc3ccc(C)c(N)c3)c3ccccc3n2)cc1 | inconclusive: 50.1 µM [inhibitor, partial curve] |
| CCOc1ccc(CN(C)CC(=O)Nc2cccc(S(=O)(=O)N(C)c3ccccc3)c2)cc1 | inconclusive: 31.6 µM [inhibitor, partial curve] |
| Cc1cccc(C)c1Nc1c(-c2ccccn2)nc2ccccn12 | inconclusive: 25.1 µM [inhibitor, full curve] |
| COc1ccc(-n2cc(-c3ccccc3)c3c(NCCCN4CCOCC4)ncnc32)cc1 | inconclusive: 39.8 µM [inhibitor, partial curve] |
| COc1ccc(-c2nn(-c3ccccc3)cc2/C=C2/SC(=S)N(CCC(=O)O)C2=O)cc1 | active: 35.5 µM |
| Cc1cc(=O)[nH]c(N=N/C(=N/Nc2ccccc2C)c2ccccc2)n1 | inconclusive: 10 µM [inhibitor, partial curve] |
| COC(=O)c1ccccc1NC(=O)c1sc(=S)n(C)c1N | inconclusive: 11.2 µM [inhibitor, partial curve, poor fit] |
| O=[N+]([O-])c1ccc(Nc2ccccc2)c2nonc12 | inconclusive: 39.8 µM [inhibitor, partial curve] |
| Cc1cc(NC(=O)CSCC(=O)N(c2cccc(Cl)c2)C(C(=O)NC2CCCCC2)c2ccc(O)c(O)c2)no1 (centres undefined) | inconclusive: 15.8 µM [inhibitor, full curve, poor fit] |
| Cc1cc(C=O)c(C)n1-c1ccc(N2CCCCC2)c([N+](=O)[O-])c1 | inconclusive: 39.8 µM [inhibitor, full curve, poor fit] |
| Cc1cc(C(=O)NCc2ccc(C(=O)O)o2)c(C)o1 | inconclusive: 70.8 µM [inhibitor, partial curve] |
| Nc1ccc(Oc2ccc([N+](=O)[O-])cc2[N+](=O)[O-])cc1 | inconclusive: 44.7 µM [inhibitor, partial curve, poor fit] |
| OC1CCN(C(=S)NCCc2ccccc2)CC1 | inactive |
| Cc1ccccc1Nc1ccc(S(=O)(=O)N2CCOCC2)cc1[N+](=O)[O-] | inconclusive: 39.8 µM [inhibitor, partial curve] |
| Cc1ccc2cc3cc(C(=O)NCCCN4CCc5ccccc5C4)oc3nc2c1 | inactive |
| COc1ccc(C(=O)c2c(C(F)(F)F)oc3c2C(=O)c2ccccc2C3=O)cc1OC | inconclusive: 12.6 µM [inhibitor, full curve, poor fit] |
| Cc1oc(C(C)(C)C)cc1C(=O)Nc1ccc2c(c1)OCCO2 | inconclusive: 79.4 µM [inhibitor, partial curve] |
